{
  "source": "PubChem BioAssay AID485344",
  "about": "(National Center for Advancing Translational Sciences (NCATS), 2010)",
  "note": "The campaign covered roughly 340,000 compounds. About 6,900 (2%) were called active. Rule as the data show it: active = inhibition above about 30%; inactive = below that, where a call was filed. Only a part is listed here, and it is no random draw. The source gives no active or inactive call for entries shown without one.",
  "data": [
    {"target": "D(2) dopamine receptor (Homo sapiens) (UniProt P14416)", "sequence (P14416 whole entry, looked up)": "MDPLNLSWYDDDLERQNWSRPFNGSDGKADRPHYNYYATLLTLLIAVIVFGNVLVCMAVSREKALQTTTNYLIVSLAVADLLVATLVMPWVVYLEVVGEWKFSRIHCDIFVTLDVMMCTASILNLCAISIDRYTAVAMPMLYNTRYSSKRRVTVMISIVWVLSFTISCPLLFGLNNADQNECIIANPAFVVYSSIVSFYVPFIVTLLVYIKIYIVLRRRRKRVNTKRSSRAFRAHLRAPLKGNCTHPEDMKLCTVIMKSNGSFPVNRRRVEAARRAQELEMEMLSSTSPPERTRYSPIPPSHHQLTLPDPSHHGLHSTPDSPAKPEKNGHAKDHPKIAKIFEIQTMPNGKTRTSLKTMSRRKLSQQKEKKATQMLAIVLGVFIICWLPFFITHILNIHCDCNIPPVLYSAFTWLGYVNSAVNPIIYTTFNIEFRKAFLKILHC", "experiment": "HTS Assay for Allosteric Antagonists of the Human D2 Dopamine Receptor: Primary Screen for Antagonists; also: 0% is about no effect", "conditions": "HEK293 TREx D2 cells, calcium flux, dopamine EC80; at 10 µM; stronger effect = higher value", "outline": "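Tetracycline-induced HEK293 T-REx cells expressing D2 force-coupled to calcium signalling were dye-loaded, exposed to compound for 180 s, then challenged with an EC80 of dopamine; calcium flux was followed kinetically for a further 180 s.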", "values": [
      {"smiles": "CCOc1ccc(C2CC(=O)n3nc(-c4ccc(C)cc4)nc3S2)cc1", "note": "(stereo unspecified)", "inhibition": "2.34%"},
      {"smiles": "O=C(NC1CCCCC1)c1ccc(CS(=O)(=O)Cc2ccccc2F)o1", "inhibition": "active: 43.8%"},
      {"smiles": "CCN(CC)S(=O)(=O)c1ccc(NC(=O)CCc2c(C)nc3cc(-c4ccc(Cl)cc4)nn3c2C)cc1", "inhibition": "5.27%"},
      {"smiles": "CN(C)c1ccc(C(CNS(=O)(=O)c2ccc(Br)cc2)N2CCCC2)cc1", "note": "(stereo unspecified)", "inhibition": "-1.55%"},
      {"smiles": "CC(C)Cc1nn2c(=O)cc(COC(=O)c3ccc4c(c3)OCO4)nc2s1", "inhibition": "7.68%"},
      {"smiles": "COc1ccc(Cl)cc1NC(=O)CSc1ccc(-c2sc(C)nc2C)nn1", "inhibition": "-6.72%"},
      {"smiles": "CCOC(=O)c1cc2c(=O)n3ccccc3nc2n(CCCOC)c1=NC(=O)C(C)(C)Oc1ccc(Cl)cc1", "inhibition": "10.8%"},
      {"smiles": "Cc1cc(C)cc(NC(=O)CCc2nnc3n(CC(C)C)c(=O)c4ccccc4n23)c1", "inhibition": "-7.82%"},
      {"smiles": "CC(C)N(Cc1ccccc1)C(=O)CN1C(=O)COc2ccc(S(=O)(=O)NC3CCCC3)cc21", "inhibition": "-1.68%"},
      {"smiles": "COc1cc(CNc2ccc3[nH]c(=O)[nH]c3c2)ccc1OCc1ccccc1F", "inhibition": "10.3%"},
      {"smiles": "CCN(C(=O)CSc1nc2ccccc2n1CC(=O)Nc1ccccc1C)c1ccccc1", "inhibition": "-7.63%"},
      {"smiles": "COc1ccc(-n2ccn(Cc3ccccc3Cl)c(=O)c2=O)cc1OC", "inhibition": "14.1%"},
      {"smiles": "COc1ccc(S(=O)(=O)N2CCC(N3CCN(Cc4ccccc4)CC3)CC2)cc1", "inhibition": "active: 73.5%"},
      {"smiles": "Cc1ccc(C)c(NC(=O)CSc2ncc3c(n2)-c2ccc(Cl)cc2N(C)S3(=O)=O)c1", "inhibition": "-3.51%"},
      {"smiles": "CCCn1c(CCC(=O)Nc2cc(Cl)c(OC)cc2OC)nc2cccnc21", "inhibition": "-25.7%"},
      {"smiles": "O=C(CCSCc1ccccc1Cl)N1CCN(c2cccc(Cl)c2)CC1", "inhibition": "-4.1%"},
      {"smiles": "COc1ccc(NC(=O)CC2C(=O)N(c3ccc(C)cc3)C(=O)N2C2CCCCC2)cc1", "note": "(stereo unspecified)", "inhibition": "-7.76%"},
      {"smiles": "CC(=O)OC(COc1ccccc1)Cn1cnc2cc(C)c(C)cc21", "note": "(stereo unspecified)", "inhibition": "4.37%"},
      {"smiles": "CCn1nc(-c2ccccc2)c(-c2ccccc2)c(C(=O)Nc2nc(C)c(C(=O)N(C)C)s2)c1=O", "inhibition": "-1.05%"},
      {"smiles": "CCc1nc2cccnc2n1-c1ccc(CC(=O)Nc2ccc(C)cc2)cc1", "inhibition": "16.1%"},
      {"smiles": "CCOc1ccc(CNC(=O)c2cnc3sc(N(CC)CC)nn3c2=O)cc1OC", "inhibition": "3.51%"},
      {"smiles": "O=C(Cn1c(=O)n(-c2ccccc2Cl)c(=O)c2sc3ccccc3c21)N1CCCC1", "inhibition": "0.616%"},
      {"smiles": "COc1cccc(-n2c([S-])c(C(=O)Nc3ccc(C(F)(F)F)cc3)[n+]3ccccc23)c1", "inhibition": "active: 35.1%"},
      {"smiles": "CCOC(=O)c1c(C)[nH]c(CCC(=O)NCCCN2CCN(c3cc(C)ccc3C)CC2)c1C", "inhibition": "23.5%"},
      {"smiles": "CCCN1CCN(CCCNC(=O)c2ccc3c(=O)n(CCc4ccccc4)c(=O)[nH]c3c2)CC1", "inhibition": "active: 30.5%"},
      {"smiles": "COc1ccccc1NC(=O)NCCCN1CCN(c2cccc(Cl)c2)CC1", "inhibition": "active: 63.1%"},
      {"smiles": "COc1ccccc1CNC(=O)CN1C(=O)CSc2ccc(S(=O)(=O)N(C)C)cc21", "inhibition": "1.99%"},
      {"smiles": "CCOc1ccc(S(=O)(=O)N2CCN(c3ccc(Cl)c(Cl)c3)CC2)c2ccccc12", "inhibition": "-22.8%"},
      {"smiles": "CCOC(=O)c1ccc2c(c1)N(Cc1ccccc1)C(=O)c1ccccc1S2", "inhibition": "20.9%"},
      {"smiles": "CC(C)CCn1c(=O)c2sccc2n2c(CCCC(=O)NC3CCC(C)CC3)nnc12", "note": "(stereo unspecified)", "inhibition": "7.75%"},
      {"smiles": "CCCCc1ccc(NC(=O)CSc2nc3ccccc3nc2N2CCOCC2)cc1", "inhibition": "1.09%"},
      {"smiles": "CC1=CS/C(=C(/C#N)C(=O)NCc2ccco2)N1c1ccccc1", "inhibition": "active: 30.5%"},
      {"smiles": "O=C(Nc1cc(Cl)cc(Cl)c1)c1ccc(F)c(S(=O)(=O)NC2CCCCC2)c1", "inhibition": "-10.1%"},
      {"smiles": "O=C(NCCS(=O)(=O)N1CCN(c2ccc(F)cc2)CC1)C1CC(=O)N(c2ccc(F)cc2)C1", "note": "(stereo unspecified)", "inhibition": "20.7%"},
      {"smiles": "COc1ccc(CCNC(=O)CCSCc2ccccc2Cl)cc1OC", "inhibition": "14.7%"},
      {"smiles": "COc1cccc(-c2cc(C(=O)Nc3ccn(Cc4ccc(C)cc4)n3)no2)c1", "inhibition": "-28.2%"},
      {"smiles": "CCc1ccccc1NC(=O)Cn1c(=O)n(Cc2ccco2)c(=O)c2sc3ccccc3c21", "inhibition": "-1.04%"},
      {"smiles": "Cc1ccc(NC(=O)Cn2c(=O)n(Cc3ccc4c(c3)OCO4)c(=O)c3ccccc32)c(C)c1", "inhibition": "-13.5%"},
      {"smiles": "Cc1ccc(C)c(N2CCN(S(=O)(=O)c3cnc(N)nc3)CC2)c1", "inhibition": "-2.59%"},
      {"smiles": "Cc1ccc2nc(N3CCN(c4cccc(C)c4C)CC3)c3nncn3c2c1", "inhibition": "11.3%"},
      {"smiles": "COc1ccc(C(C)(C)NC(=O)C2CCC(=O)N(CCCN3CCCC3=O)C2)cc1", "note": "(stereo unspecified)", "inhibition": "active: 33.4%"},
      {"smiles": "CC(=O)c1ccc(N2CCN(c3ncnc4onc(C)c34)CC2)cc1", "inhibition": "-0.177%"},
      {"smiles": "COc1ccc(OCC(=O)Nc2ccccc2C(=O)OCc2cc(=O)n3nc(C)sc3n2)cc1", "inhibition": "9.15%"},
      {"smiles": "O=C(NCCN1CCCCC1)c1ccc(Cn2c(SCc3cccc(F)c3)nc3cccnc32)cc1", "inhibition": "-26.4%"},
      {"smiles": "COC(=O)c1ccc(CSc2nc3c(c(=O)[nH]2)CCC3)cc1", "inhibition": "6.6%"},
      {"smiles": "OC(COCC1COc2ccccc2O1)CN1CCN(c2ccccc2)CC1", "note": "(stereo unspecified)", "inhibition": "active: 59.9%"},
      {"smiles": "Cc1cccc(OCC(=O)N(Cc2ccccc2)c2ccccn2)c1", "inhibition": "-8.28%"},
      {"smiles": "COc1ccc(CCNC(=O)c2ccc3c(Cl)c4c(nc3c2)CCCC4)c(OC)c1", "inhibition": "3.72%"},
      {"smiles": "COC(=O)c1cnc(N2CCN(c3ccc(F)cc3)CC2)c2ccccc12", "inhibition": "4.27%"},
      {"smiles": "Cc1ccc(SCC(=O)NC(C)(C)C)cc1", "inhibition": "active: 36.8%"},
      {"smiles": "COc1ccc(C2C(=O)N(C3CCCCCC3)CC(=O)N2CCC2=CCCCC2)cc1", "note": "(stereo unspecified)", "inhibition": "1.51%"},
      {"smiles": "CS(=O)(=O)N1CCCc2cc(C(=O)Nc3cccc(C(F)(F)F)c3)ccc21", "inhibition": "-5.39%"},
      {"smiles": "COc1cccc(CNC(=O)C(=O)Nc2ccc3nc4n(c(=O)c3c2)CCCCC4)c1", "inhibition": "10.4%"},
      {"smiles": "Cc1ccc(-c2cc(C(=O)Oc3ccccc3Cl)no2)cc1C", "inhibition": "-1.22%"},
      {"smiles": "Cc1ccc(N2CCN(C(=O)c3cc(S(=O)(=O)N4CCCCC4)c[nH]3)CC2)c(C)c1", "inhibition": "-3.76%"},
      {"smiles": "Cc1ccc2nc(Cl)c3cc(C(=O)NC4CCC(C)CC4)sc3c2c1", "note": "(stereo unspecified)", "inhibition": "5.97%"},
      {"smiles": "CCc1ccc(OCC(=O)Nc2ccc(-c3nc4ncccc4o3)cc2)cc1", "inhibition": "-0.276%"},
      {"smiles": "Cc1ccc2c(c1C)NC(=O)CC2c1ccc(Cl)cc1Cl", "note": "(stereo unspecified)", "inhibition": "-5.27%"},
      {"smiles": "Cc1ccc(OCC(=O)Nc2cccc(C(=O)OCc3cc(=O)n4nc(C)sc4n3)c2)cc1", "inhibition": "-4.26%"},
      {"smiles": "CCC(O)c1cc2c(cc1NC(=O)c1ccccc1F)OCCO2", "note": "(stereo unspecified)", "inhibition": "11.1%"},
      {"smiles": "O=C(CC1N=C2c3ccccc3N=C(SCc3cccc(F)c3)N2C1=O)NCc1ccc2c(c1)OCO2", "note": "(stereo unspecified)", "inhibition": "-3.58%"}
    ]}
  ]
}
